# In the supplement of paper PMC4604168 (melanoma cell lines):
# The other results are listed elsewhere or left out. Single values are uncertain, as repeats are few or missing.
# Tests used:
# Assay in all cases: cell count relative to DMSO control; melanoma cells; higher = more viable cells
# Details in all cases: library dose: standard library concentration; 72 h
# [1] = tested on: G361
# [2] = tested on: IPC-298
# [3] = tested on: IST-MEL1
# [4] = tested on: LB2518-MEL
# [5] = tested on: LOXIMVI
# [6] = tested on: MEL-HO
# [7] = tested on: MZ2-MEL
# [8] = tested on: MeWo
# [9] = tested on: RPMI7951
# [10] = tested on: RVH-421
# 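Further: cells treated in 1,536-well plates, then fixed and DAPI-stained, with nuclei counted from automated high-throughput microscope images.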
SMILES,cell count [1] [%],cell count [2] [%],cell count [3] [%],cell count [4] [%],cell count [5] [%],cell count [6] [%],cell count [7] [%],cell count [8] [%],cell count [9] [%],cell count [10] [%]
"C=C(c1ccc(C(=O)O)cc1)c1cc2c(cc1C)C(C)(C)CCC2(C)C [Bexarotene] + COC(=O)c1sccc1S(=O)(=O)Nc1ccc(Nc2ccccc2)cc1OC [GSK0660] (first compound 10 µM, partner dose 5 µM)",94.2,71.5,83.9,122,129,86.3,63.9,83,60.4,86.3
"NC1(c2ccc(-c3nc4ccn5c(=O)[nH]nc5c4cc3-c3ccccc3)cc2)CCC1 + Cn1cc(/C=C2\C(=O)Nc3cccnc32)c2ccccc21 [GW441756] (first compound 2 µM, partner dose 2 µM)",83.1,76.1,86.3,77.8,83.5,63.2,87.9,63,93.4,78.8
"NC1(c2ccc(-c3nc4ccn5c(=O)[nH]nc5c4cc3-c3ccccc3)cc2)CCC1 + Clc1ccc(Nc2nnc(Cc3ccncc3)c3ccccc23)cc1 [vatalanib] (first compound 2 µM, partner dose 10 µM)",62.1,49,52.3,52.9,43.1,39.9,50.8,44.8,67,58.1
"C=C(c1ccc(C(=O)O)cc1)c1cc2c(cc1C)C(C)(C)CCC2(C)C [Bexarotene] + CC(C)(C)c1cnc(CSc2cnc(NC(=O)C3CCNCC3)s2)o1 [SNS-032] (first compound 10 µM, partner dose 0.05 µM)",72.2,83.5,98.6,92.8,83.8,85,102,87.5,53.2,71.4
"CN(c1ncccc1CNc1nc(Nc2ccc3c(c2)CC(=O)N3)ncc1C(F)(F)F)S(C)(=O)=O + Nc1ncn([C@H]2C[C@H](O)[C@@H](CO)O2)c(=O)n1 [decitabine] (first compound 0.4 µM, partner dose 0.5 µM)",64.6,65.1,79.8,90.4,101,74,81.5,71.5,57.7,85.3
"CS(=O)(=O)c1ccc(C(=O)Nc2ccc(Cl)c(-c3ccccn3)c2)c(Cl)c1 [vismodegib] + COc1ccc(-c2ccc3c(N4CCOCC4)nc(N4C[C@@H](C)O[C@@H](C)C4)nc3n2)cc1CO [KU0063794] (first compound 5 µM, partner dose 0.1 µM)",93.1,73,85.5,86.4,92.2,83.9,84.9,71.7,95.6,115
"C=C(c1ccc(C(=O)O)cc1)c1cc2c(cc1C)C(C)(C)CCC2(C)C [Bexarotene] + OCCn1cc(-c2cnc3nnn(Cc4ccc5ncccc5c4)c3n2)cn1 [PF04217903] (first compound 10 µM, partner dose 5 µM)",66.7,88.8,87.4,63.8,75.5,88.1,84.9,78.3,59.9,102
"CCCS(=O)(=O)Nc1ccc(F)c(C(=O)c2c[nH]c3ncc(Cl)cc23)c1F + COc1ccc(COc2ccc(Cc3cnc(N)nc3N)cc2OC)cc1 [GW2580] (first compound 0.4 µM, partner dose 5 µM)",64.7,76,85.1,99.3,79.9,84.6,85.7,76,85.3,62.7
"CS(=O)(=O)c1ccc(C(=O)Nc2ccc(Cl)c(-c3ccccn3)c2)c(Cl)c1 [vismodegib] + Nc1ccn([C@@H]2O[C@H](CO)[C@@H](O)C2(F)F)c(=O)n1 [gemcitabine] (first compound 5 µM, partner dose 0.002 µM)",55.6,48.1,50,79.6,87.7,69.4,95.7,61.2,94.2,71.9
"CN(c1ncccc1CNc1nc(Nc2ccc3c(c2)CC(=O)N3)ncc1C(F)(F)F)S(C)(=O)=O + Nc1cccc2c1CN(C1CCC(=O)NC1=O)C2=O [lenalidomide] (first compound 0.4 µM, partner dose 5 µM)",67.7,75.1,93.7,88,72.2,79,71,85.8,56.4,75.2
"NC1(c2ccc(-c3nc4ccn5c(=O)[nH]nc5c4cc3-c3ccccc3)cc2)CCC1 + CO[C@H]1C[C@@H]2CC[C@@H](C)[C@@](O)(O2)C(=O)C(=O)N2CCCC[C@H]2C(=O)O[C@H]([C@H](C)C[C@@H]2CC[C@@H](OCCO)[C@H](OC)C2)CC(=O)[C@H](C)/C=C(\C)[C@@H](O)[C@@H](OC)C(=O)[C@H](C)C[C@H](C)/C=C/C=C/C=C/1C [everolimus] (first compound 2 µM, partner dose 0.1 µM)",46.5,62,53.8,64.8,49.4,56.6,64.4,48.9,68.9,67
"CS(=O)(=O)c1ccc(C(=O)Nc2ccc(Cl)c(-c3ccccn3)c2)c(Cl)c1 [vismodegib] + Cn1nnc2c(C(N)=O)ncn2c1=O [temozolomide] (first compound 5 µM, partner dose 10 µM)",81.7,83.4,78.1,108,79.9,91.6,85.9,89.2,120,96.5
"C=C(c1ccc(C(=O)O)cc1)c1cc2c(cc1C)C(C)(C)CCC2(C)C [Bexarotene] + CCCCCCCCCCCC1=C(O)C(=O)C=C(O)C1=O [Embelin] (first compound 10 µM, partner dose 6 µM)",62.1,66,54.8,109,93.2,74.2,94.2,92.9,65.4,90.5
"CN(c1ncccc1CNc1nc(Nc2ccc3c(c2)CC(=O)N3)ncc1C(F)(F)F)S(C)(=O)=O + COc1cc(Nc2ncc(F)c(Nc3ccc4c(n3)NC(=O)C(C)(C)O4)n2)cc(OC)c1OC [Tamatinib] (first compound 0.4 µM, partner dose 2 µM)",58.2,87.7,53.6,69,12.7,75.5,41.9,72.1,16.6,58.4
"C=C(c1ccc(C(=O)O)cc1)c1cc2c(cc1C)C(C)(C)CCC2(C)C [Bexarotene] + OCc1c[nH]c2ccccc12 [Indole-3-carbinol] (first compound 10 µM, partner dose 4 µM)",72.3,82.7,87.9,119,111,87.1,64.4,98.5,79.6,103
"NC1(c2ccc(-c3nc4ccn5c(=O)[nH]nc5c4cc3-c3ccccc3)cc2)CCC1 + Nc1ncn([C@H]2C[C@H](O)[C@@H](CO)O2)c(=O)n1 [decitabine] (first compound 2 µM, partner dose 0.5 µM)",80.7,57,75.9,71,55.8,68.5,64.4,60.5,79,130

SMILES,cell count [1] [%],cell count [2] [%],cell count [3] [%],cell count [4] [%],cell count [5] [%],cell count [6] [%],cell count [7] [%],cell count [8] [%],cell count [9] [%],cell count [10] [%]
"C=C(c1ccc(C(=O)O)cc1)c1cc2c(cc1C)C(C)(C)CCC2(C)C [Bexarotene] + Cn1cc(/C=C2\C(=O)Nc3cccnc32)c2ccccc21 [GW441756] (first compound 10 µM, partner dose 2 µM)",66.3,65.6,79.7,114,102,84.2,61.4,81.5,66.7,83.6
"C=C(c1ccc(C(=O)O)cc1)c1cc2c(cc1C)C(C)(C)CCC2(C)C [Bexarotene] + COc1cc(Nc2ncc(F)c(Nc3ccc4c(n3)NC(=O)C(C)(C)O4)n2)cc(OC)c1OC [Tamatinib] (first compound 10 µM, partner dose 2 µM)",73.5,91.1,66.6,97.3,31.2,81.7,80.1,69.6,48.1,106
"NC1(c2ccc(-c3nc4ccn5c(=O)[nH]nc5c4cc3-c3ccccc3)cc2)CCC1 + O=C(O)[C@@H]1[O][Sb](=[O])([O][Sb]2(=[O])[O][C@H]([C@H](O)CO)[C@H](O)[C@H](C(=O)O)[O]2)[O][C@H]([C@H](O)CO)[C@@H]1O [stibogluconate] (first compound 2 µM, partner dose 10 µM)",124,92.4,97.6,102,109,88.1,116,74.1,84.5,99.1
"CCCS(=O)(=O)Nc1ccc(F)c(C(=O)c2c[nH]c3ncc(Cl)cc23)c1F + O=S(=O)(c1ccccc1)N(CC(F)(F)F)c1ccc(C(O)(C(F)(F)F)C(F)(F)F)cc1 [T0901317] (first compound 0.4 µM, partner dose 7 µM)",59.6,60.8,91.1,86.5,97.3,81.2,67.4,92.2,109,80.5
"CCCS(=O)(=O)Nc1ccc(F)c(C(=O)c2c[nH]c3ncc(Cl)cc23)c1F + Cc1nc(Nc2ncc(C(=O)Nc3c(C)cccc3Cl)s2)cc(N2CCN(CCO)CC2)n1 [dasatanib] (first compound 0.4 µM, partner dose 0.02 µM)",59.6,61.7,66.5,94.3,25.6,76,39.3,81.8,59.1,73.5
"CS(=O)(=O)c1ccc(C(=O)Nc2ccc(Cl)c(-c3ccccn3)c2)c(Cl)c1 [vismodegib] + CNC(=O)c1cc(Oc2ccc(NC(=O)Nc3ccc(Cl)c(C(F)(F)F)c3)cc2)ccn1 [sorafenib] (first compound 5 µM, partner dose 2 µM)",97.7,85.8,108,90.6,114,95.4,120,106,91.6,144
"CS(=O)(=O)c1ccc(C(=O)Nc2ccc(Cl)c(-c3ccccn3)c2)c(Cl)c1 [vismodegib] + Nc1cccc2c1CN(C1CCC(=O)NC1=O)C2=O [lenalidomide] (first compound 5 µM, partner dose 5 µM)",92.6,107,88.5,129,110,100,105,108,126,87
"CN(c1ncccc1CNc1nc(Nc2ccc3c(c2)CC(=O)N3)ncc1C(F)(F)F)S(C)(=O)=O + OCCn1cc(-c2cnc3nnn(Cc4ccc5ncccc5c4)c3n2)cn1 [PF04217903] (first compound 0.4 µM, partner dose 5 µM)",78.5,87.9,71.5,84,74.7,90.8,94.1,79.7,44.3,84.1
"CS(=O)(=O)c1ccc(C(=O)Nc2ccc(Cl)c(-c3ccccn3)c2)c(Cl)c1 [vismodegib] + O=C(Nc1cccc(Cl)c1)Nc1ncc(CCNc2ncnc3ccsc23)s1 [SNS314] (first compound 5 µM, partner dose 0.004 µM)",82.4,87.2,63.7,92.6,79.5,98.2,93.3,71.9,71.9,9.48
"CN(c1ncccc1CNc1nc(Nc2ccc3c(c2)CC(=O)N3)ncc1C(F)(F)F)S(C)(=O)=O + Cn1cc(/C=C2\C(=O)Nc3cccnc32)c2ccccc21 [GW441756] (first compound 0.4 µM, partner dose 2 µM)",70.9,87.3,82.1,73,86.3,84.1,66.1,94.9,51.9,87.2
"CCCS(=O)(=O)Nc1ccc(F)c(C(=O)c2c[nH]c3ncc(Cl)cc23)c1F + COc1cc2c(Oc3ccc4[nH]c(C)cc4c3F)ncnc2cc1OCCCN1CCCC1 [cediranib] (first compound 0.4 µM, partner dose 2 µM)",60.1,86.2,73.7,–,65,81.9,–,90.5,53.4,85.9
"CN(c1ncccc1CNc1nc(Nc2ccc3c(c2)CC(=O)N3)ncc1C(F)(F)F)S(C)(=O)=O + CO[C@@H]1[C@H](N(C)C(=O)c2ccccc2)C[C@H]2O[C@]1(C)n1c3ccccc3c3c4c(c5c6ccccc6n2c5c31)C(=O)NC4 [Midostaurin] (first compound 0.4 µM, partner dose 0.4 µM)",43.7,68.1,58,–,51.4,96.3,–,70.1,39.5,56.8
"CCCS(=O)(=O)Nc1ccc(F)c(C(=O)c2c[nH]c3ncc(Cl)cc23)c1F + CC(C)(C)c1cnc(CSc2cnc(NC(=O)C3CCNCC3)s2)o1 [SNS-032] (first compound 0.4 µM, partner dose 0.05 µM)",62.7,67.5,65.7,65.1,68.7,82.7,60.5,84.1,34.6,64.8
"CS(=O)(=O)c1ccc(C(=O)Nc2ccc(Cl)c(-c3ccccn3)c2)c(Cl)c1 [vismodegib] + CC(C)C[C@H](NC(=O)[C@H](Cc1ccccc1)NC(=O)c1cnccn1)B(O)O [Bortezomib] (first compound 5 µM, partner dose 0.005 µM)",0.897,6.15,6.71,2.12,14.3,24.2,1.62,19.5,3.88,9.15
"CCCS(=O)(=O)Nc1ccc(F)c(C(=O)c2c[nH]c3ncc(Cl)cc23)c1F + NC(=O)Nc1cc(-c2cccc(F)c2)sc1C(=O)N[C@H]1CCCNC1 [AZD7762] (first compound 0.4 µM, partner dose 0.1 µM)",71,84.5,73.1,–,85.5,70.9,–,66.8,18,83.8
